The source of these data is patent publication US20220267438A1 (Janssen / Centocor, published 2022).

The target in test [1] is T1, CD3W200, recombinant CD3εγ heterodimer construct (human, UniProt P07766 22-118; P09693 23-103).
T1 construct: also called human CD3 (SPR antigen for BGCB491)
Briefly: SPR, CD3 binding after pH 8.5 stress.

Test [2] concerns the target T2, human BCMA (B cell maturation antigen, TNFRSF17) on cells (human, UniProt Q02223 1-184).
T2 sequence (looked up): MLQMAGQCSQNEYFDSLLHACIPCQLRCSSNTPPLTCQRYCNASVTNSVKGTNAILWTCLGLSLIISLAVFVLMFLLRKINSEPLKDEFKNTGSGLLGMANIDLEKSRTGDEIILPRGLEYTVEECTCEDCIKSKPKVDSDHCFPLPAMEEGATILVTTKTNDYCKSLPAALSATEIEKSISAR
Briefly: cell-based or functional assay.

Test [3] concerns the target T3, human GPRC5D (G-protein coupled receptor family C group 5 member D) on cells (human, UniProt Q9NZD1 1-345). Briefly: cell-based or functional assay.
T3 sequence (Q9NZD1 whole entry): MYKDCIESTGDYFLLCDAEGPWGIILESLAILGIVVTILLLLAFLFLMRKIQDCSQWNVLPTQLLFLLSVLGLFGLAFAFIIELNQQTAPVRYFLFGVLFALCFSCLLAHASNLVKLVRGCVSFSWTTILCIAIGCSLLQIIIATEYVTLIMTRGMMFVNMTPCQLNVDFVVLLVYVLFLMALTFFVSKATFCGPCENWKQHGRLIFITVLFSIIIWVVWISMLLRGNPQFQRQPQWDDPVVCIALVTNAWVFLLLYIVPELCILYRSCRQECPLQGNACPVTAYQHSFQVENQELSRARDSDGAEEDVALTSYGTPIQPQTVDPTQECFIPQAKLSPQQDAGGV
The target in test [4] is T4, BCMW37 (recombinant human BCMA antigen) (human, UniProt Q02223 1-54, limits assumed).
T4 construct: also called BCMA BCMW37 chain; human BCMA (SPR antigen)
T4 sequence (looked up): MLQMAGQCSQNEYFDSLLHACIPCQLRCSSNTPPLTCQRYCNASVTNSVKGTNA
Briefly: SPR, BCMA binding after physiological stress. (In general: SPR reads the build-up and loss of mass on a sensor chip optically.)

Test [5] has as its target T4, BCMW37 (recombinant human BCMA antigen). Briefly: SPR, BCMA binding after pH 5.0 stress.
The target in test [6] is T1, CD3W200, recombinant CD3εγ heterodimer …. Briefly: SPR, CD3 binding after pH 5.0 stress.
Test [7] deals with T3, human GPRC5D (G-protein coupled …). Briefly: flow cytometry, MM.1R BCMA KO cells, 1 h 37C; Run 4.
For test [8] the target is unchanged. Briefly: flow cytometry, H929 BCMA KO cells, 1 h 37C; Run 2. The protocol: (§1) First, FACS-based binding for GPRC5D and BCMA binding arms of the trispecific molecule was determined by measuring the effective concentration (EC) range from a dose-response curve using a 4-parameter fit at 37° C. for 1 hr. This was assessed using an H929 suite of cells (WT, GPRC5D-KO, BCMA-KO, and GPRC5D/BCMA KO), and a similar MM.1R suite. Cell based EC₅₀ is approximately 13 nM for WT H929 (FIGS. 2A-2D, Table 7) and 2.4 nM for WT MM.1R (FIGS. 3A-3D, Table 8). A clear avidity affect is observed as EC₅₀ and Bmax are both reduced in GPRC5D-KO and BCMA-KO lines which test monovalent binding of target binding arms (Table 7). Next, cell-based EC₅₀ was determined for the CD3-binding Fab arm using purified Pan T cells from three random donors. […] Next, dose responsive binding was assessed at 4° C. to remove any potential biological effects. As shown in FIGS. 5A-5C, binding is stronger (50-100 nM) at 4° C., compared to 37° C., which may indicate internalization. Additionally, two expression lots of BGCB463 (BGCB463.003 from transient transfection and BGCB463.004 from a stable transfection pool), were directly compared with binding to H929, MM.1R, and Pan T cells and no differences were noted (FIGS. 6A-6C).
(In general: Flow cytometry measures light scatter and fluorescence of single cells or particles in a stream.)

Test [9] addresses T5, bt-BCMA (biotinylated BCMA, Octet) (UniProt Q02223 1-54, limits assumed, biotinylated (site not given)).
T5 construct: Also used for the row 'BCMA' of the Octet serum interference test of BGCB463, where the reagent is not described; also called BCMA (Octet serum interference)
T5 sequence (looked up): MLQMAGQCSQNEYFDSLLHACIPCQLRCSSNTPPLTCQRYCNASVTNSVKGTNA
Briefly: Octet, association rate in buffer against 50% human serum. For orientation: BLI is a label-free optical method that tracks binding on a fibre tip over time.

Test [10] addresses T6, cynomolgus GPRC5D on K562 cells (cynomolgus monkey).
T6 construct: whole, on cells; also called cyno GPRC5D
Briefly: flow cytometry on K562 cells expressing cynomolgus GPRC5D, 1 hr 37 C, Run 1. How it is done:
(§2) FIGS. 9A-E. BGCB463 (circles) or negative control B23B251 (triangles) were all incubated with K562 cells expressing human GPRC5D (FIG. 9A), human BCMA (FIG. 9B), cynomolgus GPRC5D (FIG. 9C) or cynomolgus BCMA (FIG. 9D) for 1 hr at 37° C. at a starting concentration of 2 μM. After secondary detection with AF647-anti-human IgG, the MFI signal was analyzed to generate an EC₅₀ and EC₉₀ (FIG. 9E). Data are representative of two independent experiments.
(§3) The GPRC5D (i.e., GC5B680) and BCMA binding arms were assessed for cross-reactivity to cynomolgus monkey as part of the BGCB463 molecule, which uses the identical binding arms as BGCB491. Cross reactivity to cynomolgus monkeys was profiled for both target-binding scFv arms using FACS-based cell binding at 37° C. for 1 hour with K562 stably expressing human or cynomolgus monkey GPRC5D or BCMA. The cell-based EC₅₀ value for the GC5B680 scFv arm was approximately 30 nM against human GPRC5D-expressing cells and about 10-fold weaker (approximately 400 nM) on cynomolgus monkey GPRC5D-expressing cells.

In test [11] the target is T3, human GPRC5D (G-protein coupled …). Briefly: flow cytometry, H929 BCMA KO cells, 1 h 37C; Run 1. How it is done: as §1
The target in test [12] is T2, human BCMA (B cell maturation antigen, …). Briefly: flow cytometry on K562 cells expressing human BCMA, 1 hr 37 C, Run 1. The protocol: as §2, §3

T1 sequence (P07766 22-118, chain 1 of 2): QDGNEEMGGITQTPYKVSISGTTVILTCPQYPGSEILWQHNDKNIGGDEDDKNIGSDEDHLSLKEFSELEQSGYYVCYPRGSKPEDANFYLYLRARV
T1 sequence (P09693 23-103, chain 2 of 2, further chain): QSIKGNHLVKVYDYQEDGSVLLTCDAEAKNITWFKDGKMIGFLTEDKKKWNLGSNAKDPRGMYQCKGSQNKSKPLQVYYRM

B1: BGCB491 (other)
heavy: QVQLQQSGPRLVRPSQTLSLTCAISGDSVFNNNAAWSWIRQSPSRGLEWLGRTYYRSKWLYDYAVSVKSRITVNPDTSRNQFTLQLNSVTPEDTALYYCARGYSSSFDYWGQGTLVTVSSASTKGPSVFPLAPSSKSTSGGTAALGCLVKDYFPEPVTVSWNSGALTSGVHTFPAVLQSSGLYSLSSVVTVPSSSLGTQTYICNVNHKPSNTKVDKKVEPKSCDKTHTCPPCPAPEAAGGPSVFLFPPKPKDTLMISRTPEVTCVVVSVSHEDPEVKFNWYVDGVEVHNAKTKPREEQYNSTYRVVSVLTVLHQDWLNGKEYKCKVSNKALPAPIEKTISKAKGQPREPQVYTLPPSREEMTKNQVSLSCAVKGFYPSDIAVEWESNGQPENNYKTTPPVLDSDGSFFLVSKLTVDKSRWQQGNVFSCSVMHEALHNRFTQKSLSLSPGKGGGGSGGGGSGGGGSGGGGS[letters of about 100 residues not shown]QFPHTFGQGTKLEIKGGSEGKSSGSGSESKSTGGSQVTLKESGPVLVKPTETLTLTCTVSGFSLTNIRMSVSWIRQPPGKALEWLAHIFSNDEKSYSTSLKSRLTISRDTSKSQVVLTLTNVDPVDTATYYCARMRLPYGMDVWGQGTTVTVSS
light: QSALTQPASVSGSPGQSITISCTGTSSNIGTYKFVSWYQQHPDKAPKVLLYEVSKRPSGVSSRFSGSKSGNTASLTISGLQAEDQADYHCVSYAGSGTLLFGGGTKLTVLGQPKAAPSVTLFPPSSEELQANKATLVCLISDFYPGAVTVAWKADSSPVKAGVETTTPSKQSNNKYAASSYLSLTPEQWKSHRSYSCQVTHEGSTVEKTVAPTECS
chain: EIVLTQSPGTLSLSPGERATLSCRASQSISSSFLTWYQQKPGQAPRLLIYGASSRATGIPDRFSGGGSGTDFTLTISRLEPEDFAVYYCQHYGSSPMYTFGQGTKLEIKGGSEGKSSGSGSESKSTGGS[letters of about 100 residues not shown]DEGYSSGHYYGMDVWGQGTTVTVSSEPKSSDKTHTCPPCPAPEAAGGPSVFLFPPKPKDTLMISRTPEVTCVVVSVSHEDPEVKFNWYVDGVEVHNAKTKPREEQYNSTYRVVSVLTVLHQDWLNGKEYKCKVSNKALPAPIEKTISKAKGQPREPQVYTLPPSREEMTKNQVSLWCLVKGFYPSDIAVEWESNGQPENNYKTTPPVLDSDGSFFLYSKLTVDKSRWQQGNVFSCSVMHEALHNHYTQKSLSLSPGK
notes: Trispecific IgG1 antibody (L234A, L235A, D265S); Heavy chain 1 = anti-CD3 (CD3B376) Fab heavy chain, hole and RF mutations, with C-terminal anti-GPRC5D scFv (GC5B680); Heavy chain 2 = anti-BCMA scFv (BCMB519) - Fc knob; also called JNJ-79635322; BCMA×GPRC5D×CD3 trispecific mAb
Usually Kd stands for the equilibrium constant for the complex coming apart. With B1, the Kd in test [1] was found to be 21.6 nM; in test [4], 0.143 nM; in [5], 0.207 nM; in test [6], 22.6 nM. Also, the “CD3 T-cell activation EC50, H929-GPRC5D-KO” value in test [2] is 0.487 nM. In addition, the “Cytotoxicity EC50, H929-GPRC5D-KO, 72 hours, 4 T-cell donors” value in [2] worked out at 0.33 nM. Further, the “CD3 T-cell activation EC50, H929-BCMA-KO” value in test [3] is 4.13 nM. The “Cytotoxicity EC50, H929-BCMA-KO, 72 hours, 4 T-cell donors” value in test [3] came to 4.79 nM.

B2: BGCB463 (other)
heavy: QVQLQQSGPRLVRPSQTLSLTCAISGDSVFNNNAAWSWIRQSPSRGLEWLGRTYYRSKWLYDYAVSVKSRITVNPDTSRNQFTLQLNSVTPEDTALYYCARGYSSSFDYWGQGTLVTVSSASTKGPSVFPLAPSSKSTSGGTAALGCLVKDYFPEPVTVSWNSGALTSGVHTFPAVLQSSGLYSLSSVVTVPSSSLGTQTYICNVNHKPSNTKVDKKVEPKSCDKTHTCPPCPAPEAAGGPSVFLFPPKPKDTLMISRTPEVTCVVVSVSHEDPEVKFNWYVDGVEVHNAKTKPREEQYNSTYRVVSVLTVLHQDWLNGKEYKCKVSNKALPAPIEKTISKAKGQPREPQVYTLPPSREEMTKNQVSLSCAVKGFYPSDIAVEWESNGQPENNYKTTPPVLDSDGSFFLVSKLTVDKSRWQQGNVFSCSVMHEALHNRFTQKSLSLSPGK
light: QSALTQPASVSGSPGQSITISCTGTSSNIGTYKFVSWYQQHPDKAPKVLLYEVSKRPSGVSSRFSGSKSGNTASLTISGLQAEDQADYHCVSYAGSGTLLFGGGTKLTVLGQPKAAPSVTLFPPSSEELQANKATLVCLISDFYPGAVTVAWKADSSPVKAGVETTTPSKQSNNKYAASSYLSLTPEQWKSHRSYSCQVTHEGSTVEKTVAPTECS
chain: [letters of about 100 residues not shown]QFPHTFGQGTKLEIKGGSEGKSSGSGSESKSTGGSQVTLKESGPVLVKPTETLTLTCTVSGFSLTNIRMSVSWIRQPPGKALEWLAHIFSNDEKSYSTSLKSRLTISRDTSKSQVVLTLTNVDPVDTATYYCARMRLPYGMDVWGQGTTVTVSSEPKSSDKTHTCPPCPAPEAAGGPSVFLFPPKPKDTLMISRTPEVTCVVVSVSHEDPEVKFNWYVDGVEVHNAKTKPREEQYNSTYRVVSVLTVLHQDWLNGKEYKCKVSNKALPAPIEKTISKAKGQPREPQVYTLPPSREEMTKNQVSLWCLVKGFYPSDIAVEWESNGQPENNYKTTPPVLDSDGSFFLYSKLTVDKSRWQQGNVFSCSVMHEALHNHYTQKSLSLSPGKGGSEGKSSGSGSESKSTGGSEIVLTQSPGTLSLSPGERATLSCRASQSISSSFLTWYQQKPGQAPRLLIYGASSRATGIPDRFSGGGSGTDFTLTISRLEPEDFAVYYCQHYGSSPMYTFGQGTKLEIKGGSEGKSSGSGSESKSTGGS[letters of about 100 residues not shown]DEGYSSGHYYGMDVWGQGTTVTVSS
notes: Trispecific IgG1 antibody (L234A, L235A, D265S); Heavy chain 1 = anti-CD3 (CD3B376) Fab heavy chain with hole and RF mutations; also called BGCB463.003; BGCB463.004
What is called EC50 is the concentration at which the effect is half-maximal. Low readings indicate an effect from little substance, high ones a need for much substance. B2: the EC50 in [7] was found to be 7.2 nM; in test [8], 129 nM; in test [10] it was 435 nM; in test [11], 195 nM; in test [12], 248 nM. The molecule further gave a ka buffer/ka serum in test [9] of 1.6.
